Assay results reported in the supplement of paper PMC4604168 (melanoma cell lines).
The list shows a part of the results. Single values are uncertain, as repeats are few or missing.

Columns and labels:
Experiment in all cases: cell count relative to DMSO control; melanoma cells; higher = more viable cells
Conditions in all cases: library dose: standard library concentration; 72 h
G361 = system: G361
IPC-298 = system: IPC-298
IST-MEL1 = system: IST-MEL1
LB2518-MEL = system: LB2518-MEL
LOXIMVI = system: LOXIMVI
MEL-HO = system: MEL-HO
MZ2-MEL = system: MZ2-MEL
MeWo = system: MeWo
RPMI7951 = system: RPMI7951
RVH-421 = system: RVH-421
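Note: cells treated in 1,536-well plates, then fixed and DAPI-stained, with nuclei counted from automated high-throughput microscope images.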

Row | Structure (SMILES) | cell count (G361) [%] | cell count (IPC-298) [%] | cell count (IST-MEL1) [%] | cell count (LB2518-MEL) [%] | cell count (LOXIMVI) [%] | cell count (MEL-HO) [%] | cell count (MZ2-MEL) [%] | cell count (MeWo) [%] | cell count (RPMI7951) [%] | cell count (RVH-421) [%]
1 | C[As](C)SC[C@H](NC(=O)CC[C@H](N)C(=O)O)C(=O)NCC(=O)O [Darinaparsin] + Cc1cc([N+](=O)[O-])ccc1NS(=O)(=O)c1cc(Cl)ccc1Cl [FH535] (first compound 2 µM, partner dose 5 µM) | 48.2 | 61.4 | 65.2 | 66.1 | 55.9 | 57.7 | 69.4 | 75.1 | 72.7 | 62.6
2 | Cn1cc(C2=C(c3cn(C4CCN(Cc5ccccn5)CC4)c4ccccc34)C(=O)NC2=O)c2ccccc21 [Enzastaurin] + Nc1nc(F)nc2c1ncn2[C@@H]1O[C@H](CO)[C@@H](O)[C@@H]1O [fludarabine] (first compound 4 µM, partner dose 1 µM) | 56.9 | 84.3 | 73.7 | 64.2 | 67.5 | 81.5 | 114 | 96.7 | 48.4 | 34.8
3 | Cn1cc(C2=C(c3cn(C4CCN(Cc5ccccn5)CC4)c4ccccc34)C(=O)NC2=O)c2ccccc21 [Enzastaurin] + C[C@]1(c2nc3c(C(N)=O)cccc3[nH]2)CCCN1 [Veliparib] (first compound 4 µM, partner dose 7 µM) | 73.6 | 99 | 78.5 | 64.8 | 98.1 | 99.6 | 104 | 114 | 52.8 | 43.7
4 | Cn1cc(C2=C(c3cn(C4CCN(Cc5ccccn5)CC4)c4ccccc34)C(=O)NC2=O)c2ccccc21 [Enzastaurin] + C[C@@H](Oc1cc(-c2cnn(C3CCNCC3)c2)cnc1N)c1c(Cl)ccc(F)c1Cl [Crizotinib] (first compound 4 µM, partner dose 1 µM) | 59 | 84.1 | 74.9 | – | 100 | 75 | – | 78.8 | 43.2 | 46.8
5 | Cn1cc(C2=C(c3cn(C4CCN(Cc5ccccn5)CC4)c4ccccc34)C(=O)NC2=O)c2ccccc21 [Enzastaurin] + Cn1cncc1[C@@](N)(c1ccc(Cl)cc1)c1ccc2c(c1)c(-c1cccc(Cl)c1)cc(=O)n2C [tipifarnib] (first compound 4 µM, partner dose 0.05 µM) | 62.1 | 107 | 82.1 | 40.7 | 72.7 | 109 | 93.9 | 83.3 | 46.5 | 58.8
6 | C[As](C)SC[C@H](NC(=O)CC[C@H](N)C(=O)O)C(=O)NCC(=O)O [Darinaparsin] + COc1cc(N2CCC(N3CCN(C)CC3)CC2)ccc1Nc1ncc(Cl)c(Nc2ccccc2S(=O)(=O)C(C)C)n1 [NVP-TAE684] (first compound 2 µM, partner dose 0.4 µM) | 58.5 | 76.8 | 86.1 | – | 99.9 | 81.4 | – | 65 | 80.1 | 68.7
7 | C[As](C)SC[C@H](NC(=O)CC[C@H](N)C(=O)O)C(=O)NCC(=O)O [Darinaparsin] + Oc1cc(-c2nc(-c3ccccc3)[nH]c2-c2ccncc2)ccc1Cl [L779450] (first compound 2 µM, partner dose 1 µM) | 58.5 | 78.7 | 96.8 | – | 79.6 | 84.8 | – | 76.3 | 78.7 | 73.4
8 | C[C@]12O[C@H](C[C@]1(O)CO)n1c3ccccc3c3c4c(c5c6ccccc6n2c5c31)CNC4=O [Lestaurtinib] + C[As](C)SC[C@H](NC(=O)CC[C@H](N)C(=O)O)C(=O)NCC(=O)O [Darinaparsin] (first compound 0.02 µM, partner dose 2 µM) | 82.4 | 75.5 | 105 | – | 58.9 | 79.2 | – | 78.9 | 180 | 94.1
9 | C[As](C)SC[C@H](NC(=O)CC[C@H](N)C(=O)O)C(=O)NCC(=O)O [Darinaparsin] + COc1cc2ncnc(Nc3ccc(Oc4ccccc4)cc3)c2cc1OC [SrcI1] (first compound 2 µM, partner dose 10 µM) | 67.4 | 85.4 | 82.1 | 128 | 274 | 83.8 | 79.8 | 59.2 | 61.4 | 84.3
10 | Cn1cc(C2=C(c3cn(C4CCN(Cc5ccccn5)CC4)c4ccccc34)C(=O)NC2=O)c2ccccc21 [Enzastaurin] + CS(=O)(=O)c1ccc(C(=O)Nc2ccc(Cl)c(-c3ccccn3)c2)c(Cl)c1 [vismodegib] (first compound 4 µM, partner dose 5 µM) | 73.2 | 86 | 83.7 | 69 | 118 | 105 | 94.9 | 91.5 | 41.9 | 76.5
11 | N.N.[Cl][Pt][Cl] [cisplatin] + O=C(O)[C@@H]1[O][Sb](=[O])([O][Sb]2(=[O])[O][C@H]([C@H](O)CO)[C@H](O)[C@H](C(=O)O)[O]2)[O][C@H]([C@H](O)CO)[C@@H]1O [stibogluconate] (first compound 8 µM, partner dose 10 µM) | 89.3 | 103 | 106 | 86.5 | 62.3 | 91.4 | 84.9 | 104 | 88.1 | 76.1
12 | C[As](C)SC[C@H](NC(=O)CC[C@H](N)C(=O)O)C(=O)NCC(=O)O [Darinaparsin] + COc1ccc(Cl)c(Nc2nc3ccccc3nc2NS(=O)(=O)c2cccc(NC(=O)C(C)(C)N)c2)c1 [XL147] (first compound 2 µM, partner dose 4 µM) | 79.2 | 74.1 | 64.2 | – | 90.5 | 60.3 | – | 70.2 | 92.9 | 64.7
13 | N.N.[Cl][Pt][Cl] [cisplatin] + c1cc(-c2cnn3cc(-c4ccc(OCCN5CCCCC5)cc4)cnc23)ccn1 [Dorsomorphin] (first compound 8 µM, partner dose 2 µM) | 70.2 | 87.1 | 84.7 | 78.4 | 88.6 | 81.2 | 71.3 | 78.7 | 46.1 | 81.8
14 | C[C@]12O[C@H](C[C@]1(O)CO)n1c3ccccc3c3c4c(c5c6ccccc6n2c5c31)CNC4=O [Lestaurtinib] + C[C@@H](Oc1cc(-c2cnn(C3CCNCC3)c2)cnc1N)c1c(Cl)ccc(F)c1Cl [Crizotinib] (first compound 0.02 µM, partner dose 1 µM) | 82 | 79.7 | 103 | – | 179 | 80.2 | – | 72 | 81.9 | 106
15 | N.N.[Cl][Pt][Cl] [cisplatin] + NCC(=O)Nc1ccc(-n2nc(C(F)(F)F)cc2-c2ccc3c(ccc4ccccc43)c2)cc1 [OSU03012] (first compound 8 µM, partner dose 5 µM) | 77.3 | 111 | 75.7 | – | 75.6 | 83.7 | – | 99.8 | 62 | 102
16 | C[As](C)SC[C@H](NC(=O)CC[C@H](N)C(=O)O)C(=O)NCC(=O)O [Darinaparsin] + C/C(O)=C(\C#N)C(=O)Nc1cc(Br)ccc1Br [LFM-A13] (first compound 2 µM, partner dose 10 µM) | 75.9 | 83.1 | 81.5 | – | 81.7 | 78.7 | – | 67.6 | 65.1 | 79.2
17 | Cn1cc(C2=C(c3cn(C4CCN(Cc5ccccn5)CC4)c4ccccc34)C(=O)NC2=O)c2ccccc21 [Enzastaurin] + NC1(c2ccc(-c3nc4ccn5c(=O)[nH]nc5c4cc3-c3ccccc3)cc2)CCC1 [MK2206] (first compound 4 µM, partner dose 2 µM) | 72.4 | 82.2 | 75.7 | – | 50.5 | 79.3 | – | 97.5 | 32.9 | 52.8
18 | Cn1cc(C2=C(c3cn(C4CCN(Cc5ccccn5)CC4)c4ccccc34)C(=O)NC2=O)c2ccccc21 [Enzastaurin] + Cc1cc([N+](=O)[O-])ccc1NS(=O)(=O)c1cc(Cl)ccc1Cl [FH535] (first compound 4 µM, partner dose 5 µM) | 46.6 | 60.5 | 57.7 | – | 83.4 | 57.1 | – | 92.9 | 54 | 64
